Measurements taken from PubChem BioAssay (NCATS).
Values joined by “and” are separate entries in the source; they are usually repeats but may differ in a detail not shown here. Equal entries are not always repeated. This list was built around the results that the source calls inconclusive (neither active nor inactive); the mix of calls is not that of the screen. Where the call is inconclusive, the potency comes from a doubtful curve fit. Active and inactive are the calls of the source. Calls follow the shape of the dose curve; as a rule, active = well fitted cell-killing curve with a large enough effect; inconclusive = small, poorly fitted or top-dose-only effect, or effect the other way; inactive = no such curve, though single readings can be large or run the other way.

experiment: Viability qHTS for spleen associated tyrosine kinase inhibitor (SYKi) naive MV4-11 cells (AID 1963823); conditions: MV4-11 AML viability, CellTiter-Glo luminescence, 72 h; series mostly up to 45 µM; also: nearly all actives have a fitted effect of over 40% in size
Summary of the method: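 Cells: MV4-11, SYK inhibitor naive, 500 per well. Treatment: library compounds, 72 hr, 37 C, 5% CO2. Read-out: CellTiter-Glo luminescence after 10 min RT.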
Potency is read from the fitted curve at half-maximal effect; tags tell the direction and shape of the fitted curve.

| SMILES | Potency |
| --- | --- |
| CCOc1ccc(Oc2ccc(OCc3cc(F)ccc3F)cc2)c(N)c1 | inconclusive: 16.4 µM [cytotoxic, single point] |
| C[C@@H]1O[C@@H](O[C@H]2CC[C@@]3(C)C(CC[C@@H]4C3CC[C@]3(C)[C@@H](C5=CC(=O)OC5)CC[C@]43O)C2)[C@H](O)[C@H](O)[C@H]1O (stereo not given in full) | inconclusive: 0.282 µM [cytotoxic, full curve] |
| CC(C)(N)Cc1ccc(Cl)cc1 | inactive |
| Clc1cccc(N2CCNCC2)c1 | inactive |
| CC(=O)O[C@H]1C[C@]2(O)[C@@H]3CC[C@@H]4C[C@@H](O)CC[C@]4(C)[C@H]3CC[C@]2(C)[C@H]1c1ccc(=O)oc1 | active: 0.0259 µM |
| CCN(C(C)=O)c1cccc(-c2ccnc3c(C#N)cnn23)c1 | inactive |
| O=[N+]([O-])c1c2ccccc2cc2ccccc12 | inconclusive: 12.1 µM [cytotoxic, partial curve, poor fit] |
| CCC1C2CC3C4N(C)c5ccccc5C45CC(C2C5O)N3C1O (stereo not given) | inactive |
| C[C@]12CC[C@H](O[C@@H]3O[C@H](CO)[C@@H](O)[C@H](O)[C@H]3O)CC1CC[C@@H]1C2CC[C@]2(C)[C@@H](C3=CC(=O)OC3)CC[C@]12O (stereo not given in full) | inconclusive: 2.24 µM [cytotoxic, full curve] |
| CN1Cc2c(ccc3c2OCO3)[C@@H]2[C@H]1c1cc3c(cc1C[C@@H]2O)OCO3 | active: 3.21 µM |
| O=C1NC(=O)c2c1c1c3ccccc3n3c1c1c2c2ccccc2n1C1CCC3O1 | inconclusive: 0.0103 µM [cytotoxic, full curve] |
| CC(C)NCC(O)c1ccccc1Cl (stereo not given) | inconclusive: 0.133 µM [cytotoxic, full curve, poor fit] |
| COc1cc(O)c2c(c1)CCC[C@@H](O)[C@H](O)C(=O)/C=C\C[C@H](C)OC2=O | active: 1.8 µM |
| COc1cccc(NCC(F)Cn2c3ccc(Br)cc3c3cc(Br)ccc32)c1 (stereo not given) | active: 2.06 µM |
| CC(C)(C)NCC(O)c1cc(Cl)c(N)c(C(F)(F)F)c1 (stereo not given) | inactive |
| CC(C)(C)c1ccc(O)cc1 | inactive |
| Clc1ccc([C@]23CNC[C@H]2C3)cc1Cl | inactive |
| CC1=CC(=O)[C@@H](O)[C@]2(C)C3[C@@H](O)[C@@H]4OC(=O)[C@@H]([C@H]4C)[C@]3(C)C(=O)C[C@@H]12 (stereo not given in full) | active: 0.904 µM |
| COc1cc(CC(C)N)cc(OC)c1OC (stereo not given) | inactive |
| COC1CC(OC2CCC3(C)C(CCC4C3CCC3(C)C(C5=CC(=O)OC5)C(OC(C)=O)CC43O)C2)OC(C)C1OC1OC(CO)C(O)C(O)C1O (stereo not given) | active: 0.769 µM |
| CC(C)[C@@H](CN1CC[C@@](C)(c2cccc(O)c2)[C@@H](C)C1)NC(=O)[C@H]1Cc2ccc(O)cc2CN1 | inconclusive: 23.1 µM [cytotoxic, single point] |
| CCOC(=O)c1cncn1C(C)c1ccccc1 (stereo not given) | inconclusive: 21.1 µM [cytotoxic, single point] and inconclusive: 16.4 µM [cytotoxic, single point] |
| COP(=O)(OC)C(O)C(Cl)(Cl)Cl (stereo not given) | inactive |
| CC[n+]1c(-c2ccccc2)c2cc(N)ccc2c2ccc(N)cc21 | inconclusive: 3.35 µM [cytotoxic, partial curve] |
| COc1ccccc1CN[C@H]1C2CCN(CC2)[C@H]1C(c1ccccc1)c1ccccc1 | inconclusive: 6.51 µM [cytotoxic, partial curve, poor fit] |
| CN1C[C@H](CNC(=O)OCc2ccccc2)C[C@@H]2c3cccc4c3c(cn4C)C[C@H]21 | inconclusive: 11.9 µM [cytotoxic, partial curve] |
| CCN1C[C@]2(OC(=O)c3ccccc3NC(C)=O)CC[C@H](OC)[C@@]34[C@@H]2C[C@@H]([C@@H]13)[C@@]1(O)C[C@H](OC)[C@H]2C[C@@H]4[C@]1(O)[C@H]2OC | inconclusive: 0.92 µM [cytotoxic, full curve, poor fit] |
| CC[C@@H](CO)NC(=O)[C@@H]1C=C2c3cccc4c3c(cn4C)C[C@H]2N(C)C1 | inconclusive: 8.41 µM [cytotoxic, partial curve] |
| C[C@H](CN1CCOCC1)C(C(=O)N1CCCC1)(c1ccccc1)c1ccccc1 | inconclusive: 26.4 µM [cytotoxic, partial curve, poor fit] |
| CC(=O)Nc1cc([As](=O)(O)O)ccc1O | inconclusive: 26.6 µM [cytotoxic, partial curve, poor fit] |
